This is one part of the list.
B1: chr7:2664602:2664704:+|3pUTR|ENSG00000136295|msi1_unk|FALSE|overlapping (ssRNA)
RNA: GGGAGUUCUACAGUCCGACGAUCUCCUCCAGCCUCUGUAGGGCCAUGGCUGUAUGUACUGUCGCUGUGUUUUUUUGUUUUUUUAGAACUGGGUUUGGGGGCUGAUUUUUAUUUCUUUGGGGGCUUUUUUUCUUGGCAAAUACUCAACAGAGGAUUGAGCAUCA
B2: ENSG00000107863:be:win_3801|CDS|ENSG00000107863|bound_else_gene|NA|bound_elsewhere_windowed (ssRNA)
RNA: GGGAGUUCUACAGUCCGACGAUCUGAACAUCAUUAUGAAACACUUAAGUUCCUUUCAGCUCAUCUGAAGACAGUGGCAGAAAAUUCAGAAAAAAAUAAGAUGGAACCAAGAAACCUAGCAAUAGUGUUUGGUCCCACCCUUGUCAACAGAGGAUUGAGCAUCA
B3: chr3:46835109:46836203:-|three_prime_utr|ENSG00000160808|control|control|control (ssRNA)
RNA: GGGAGUUCUACAGUCCGACGAUCUGAAGGCACAAGCUGUUCCAGUAUAAUAAAGAAAAUAAUUAAAUUAAGAAAAGUUAUACUAGAAAUAAGAUAUAGGUAUGAUUAUUAUUAAUCAUUAGUUUGUAGUAUUACUUUGUUCUACAACAGAGGAUUGAGCAUCA
B4: chr5:136174412:136174513:+|CDS|ENSG00000113658|unk|FALSE|unique (ssRNA)
RNA: GGGAGUUCUACAGUCCGACGAUCUAUGUUGGUGGAGAGGUGUAUGCGGAAUGCCUCAGUGACAGCAGCAUAUUUGUACAGAGUAGGAACUGCAACUUUCAUCAUGGCUUUCAUCCCACCACUGUCUGUAAGAUUCCCAGCAGCCAACAGAGGAUUGAGCAUCA
B5: chr8:93923365:93923466:+|CDS|ENSG00000164951|msi1|FALSE|unique (ssRNA)
RNA: GGGAGUUCUACAGUCCGACGAUCGCAGGAUGUGGUUAGGAUUGUGGGUGAGUACCUAACUGGCAUGCAUCACCAACAGCCAAUAGCUGUUGGUGGCUACAAGGUGACUCUGGGACAGAUGCAUGGCCUUUUAACAGAAAGGAGCAACAGAGGAUUGAGCAUCA
B6: chr14:92688591:92688692:+|3pUTR|ENSG00000100599|msi1|total|mutant (ssRNA)
RNA: GGGAGUUCUACAGUCCGACGAUCUCCCCAUGAGUCCCCCACACCCACCCCAUCCUCGGUCUUUGCAAAGAAGGGCCCGAGCUCCGUUUCCCCAGGACUGGCCCCGGAAGGAGCACCGGCCACAGCUGCUCCCCGUGCCACUCACAACAGAGGAUUGAGCAUCA
B7: ENSG00000175387:stop:overlap|stop_codon|ENSG00000175387|stop_codon|NA|stop_codon (ssRNA)
RNA: GGGAGUUCUACAGUCCGACGAUCUGUUUCAUUGCAUUCUUGCAUAUUCUGGAGUUCAUUUGUAUCUAUUUUCAAUGAGGUUAUAGAGUCAGCUGAUCUUUAUGUAAAAUAAAGUUGGAGGCCUCCAAAUUCAAAACUGUUGCACAACAGAGGAUUGAGCAUCA
B8: chr9:97930034:97931221:-|CDS|ENSG00000136929|control|control|control (ssRNA)
RNA: GGGAGUUCUACAGUCCGACGAUCCAAUGAAACAGAUCAAGGAAUAGCUGAGACAGAAGGCCUUUUUCCUAAAAUACAAGAAAUAGCUGAGCCUAAAGACCUUUCUACAAAAACACACCAAGAAUCAGCUGAACCUAAAUACCUCAACAGAGGAUUGAGCAUCA
B9: chr14:96489241:96489342:+|3pUTR|ENSG00000140057|unk|total|mutant (ssRNA)
RNA: GGGAGUUCUACAGUCCGACGAUCUAAAGUGUAUAAUUCAGUGGCACUAAGUUCAUUCACAAUGAUCUGCAGCCACCACUAUCCCGUCCAGAACUUUCUCAUCACCCCAAAUGGAAACCCAGCACCUAUCCGGCAGUCACGCUCCAACAGAGGAUUGAGCAUCA
B10: chr22:29286963:29287064:+|CDS|ENSG00000182944|unk|total|mutant (ssRNA)
RNA: GGGAGUUCUACAGUCCGACGAUCCAGAGCAGUUACUCUCAGCAGAACACCUAUGGGCAACCGAGCAGCUAUGGACAGCAGAGCCGCUAUGGUCAACAAAGCAGCUAUGGGCAGCAGCCUCCCACCCGUUACCCACCCCAAACUCAACAGAGGAUUGAGCAUCA
B11: ENSG00000130720:stop:overlap|stop_codon|ENSG00000130720|stop_codon|NA|stop_codon (ssRNA)
RNA: GGGAGUUCUACAGUCCGACGAUCGCUGGCAGUACUCACUCAAGUUCUCUGAGAUGAAGAUCCGGCCGGUCCGGGAGGACCGCUAGACUGGUGCACCUUGUCCUUGGCCCUGCUGGUCCCUGUCGCCCCAUCCCCGACCCCACCCAACAGAGGAUUGAGCAUCA
B12: chr16:46956839:46956924:-|3pUTR|ENSG00000069345|msi1_unk|FALSE|overlapping (ssRNA)
RNA: GGGAGUUCUACAGUCCGACGAUCAUCAAUCCAGAUGAACUGAGGGACAUCUGUUGGUCUAUGUAUAACUUUUAAAAUUGGUAUAGUAUCUACAGAGUGUAUAAUUUAAACUAACCACAAAGCUUUACAUCUUCAUUUUGACUGCAACAGAGGAUUGAGCAUCA
B13: chr11:57233576:57235861:-|three_prime_utr|ENSG00000134817|control|control|control (ssRNA)
RNA: GGGAGUUCUACAGUCCGACGAUCAGAGAAGCCUGGCGCCCUCGGCCCUCCCCGGCCUUUGCCCUUGCUUUCUGAAAAUCAGGUAGUGUGGCUACUCCUUGUCCUAUGCACAUCCUUUAACUGUCCCCUGAUUCUGCCCCGCCCCAACAGAGGAUUGAGCAUCA
B14: chr4:87981664:87981765:+|CDS|ENSG00000118785|msi1|FALSE|unique (ssRNA)
RNA: GGGAGUUCUACAGUCCGACGAUCCACUGAUUUUCCCACGGACCUGCCAGCAACCGAAGUUUUCACUCCAGUUGUCCCCACAGUAGACACAUAUGAUGGCCGAGGUGAUAGUGUGGUUUAUGGACUGAGGUCAAAAUCUAAGAACAACAGAGGAUUGAGCAUCA

target: MSI1 full-length (mouse, UniProt Q61474 1-362); assay: nsRBNS (natural sequence RNA bind-n-seq); RBNS binding buffer (assumed for nsRBNS): 25 mM Tris pH 7.5, 150 mM KCl, 3 mM MgCl2, 0.01% Triton X-100, 500 ug/ml BSA, 20 U/ml SUPERase-In, 4 C; UNK is unkempt and MSI1 is Musashi-1; names of the RNAs are library labels; protein concentration not given here; high values mean tight binding
Chain of UniProt Q61474 (Q61474 whole entry): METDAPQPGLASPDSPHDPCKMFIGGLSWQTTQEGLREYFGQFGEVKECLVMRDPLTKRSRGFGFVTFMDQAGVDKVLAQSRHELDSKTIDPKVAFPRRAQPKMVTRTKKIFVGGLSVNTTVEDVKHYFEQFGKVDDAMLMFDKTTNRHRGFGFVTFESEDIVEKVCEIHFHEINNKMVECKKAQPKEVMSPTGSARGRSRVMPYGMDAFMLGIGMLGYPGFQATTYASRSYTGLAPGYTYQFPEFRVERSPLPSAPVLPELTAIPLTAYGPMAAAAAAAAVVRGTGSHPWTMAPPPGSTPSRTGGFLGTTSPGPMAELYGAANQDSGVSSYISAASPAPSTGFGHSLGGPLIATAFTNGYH

Going from B1 to B2, the binding signal falls from 1.75 enrichment R to 0.237 enrichment R.

Compared with B3, B4 is lower in binding signal: 24.8 enrichment R for the first, 0.546 enrichment R for the second.

First: B5
Second: B6
The binding signal of the first is lower: 0.408 enrichment R for the first, 0.586 enrichment R for the second.

Compared with B7, B8 is lower in binding signal: 0.726 enrichment R for the first, 0.607 enrichment R for the second.

Compared with B9, B10 is higher in binding signal: 0.33 enrichment R for the first, 0.594 enrichment R for the second.

Going from B11 to B12, the binding signal rises from 0.763 enrichment R to 1.93 enrichment R.

First: B13
Second: B14
The binding signal of the first is higher: 0.706 enrichment R for the first, 0.451 enrichment R for the second.

— PMC12136788
